Laboratory results from PubChem BioAssay AID463173 (ICCB-Longwood Screening Facility, Harvard Medical School, 2010).
The campaign covered roughly 52,000 compounds. About 1,700 (3.3%) were called active. Rule as the data show it: active = survival mostly below about 52% (no sharp cut-off); inactive = mostly above about 56%. Some of the results follow.

These compounds were tested on Wild type (assay: S. aureus survival, RN4220 and DeltatarO strains – OD600, teichoic acid synthesis inhibitors, primary screen (AID 463173)). Details: S. aureus RN4220 wild type/DeltatarO growth, OD600, 18 h, hits give low values, screened at 18.75 µg/mL (by protocol).

Row | SMILES | survival
1 | COc1cccc(-c2cc(C(F)(F)F)n3nc(-c4ccc(C)cc4)cc3n2)c1 | inactive: 129%
2 | CNS(=O)(=O)c1ccc(NC(=O)c2nc3nc(C)cc(C(F)F)n3n2)cc1 | inactive: 132%
3 | CCN(c1ccccc1)S(=O)(=O)c1ccc(NC(=O)c2cc(=O)c3c(C)cc(C)cc3o2)cc1 | inactive: 82%
4 | Cc1nc2nc(CNC(=O)c3cccc(F)c3)nn2c(C)c1CCC(=O)Nc1ccc(F)cc1 | inactive: 90%
5 | O=c1n(Cc2ccccc2)nc2n1-c1ccccc1OC2 | inactive: 115%
6 | CC(C)c1cnc2c(c1SCc1ccc([N+](=O)[O-])cc1)c(=O)n(C)c(=O)n2C | inactive: 102%
7 | COc1cc2c(cc1OC)C(COc1ccc(F)cc1)N(C(=O)C(C)C)CC2 (stereo not given) | inactive: 49%
8 | CCOc1ccc(NS(=O)(=O)c2ccc3[nH]cc(C(=O)N4CCCC4)c(=O)c3c2)cc1 | inactive: 86%
9 | Cc1ccc(S(=O)(=O)Cc2csc(N)n2)cc1 | inactive: 110%
10 | COc1ccc(S(=O)(=O)N(Cc2nc(-c3ccccc3)no2)C2CCCCC2)cc1 | inactive: 81%
11 | Cc1ccccc1C(=O)NCC(c1ccc(N(C)C)cc1)N1CCCC1 (stereo not given) | inactive: 66%
12 | Fc1ccc(Nc2nc(SCc3ccc(Cl)cc3)nc3ccccc23)cc1 | inactive: 90%
13 | COc1cccc(N2C(=O)CC(N3CCC(C(N)=O)(N4CCCCC4)CC3)C2=O)c1 (stereo not given) | inactive: 91%
14 | Cc1cccc(-c2noc(-c3cccnc3NCc3ccccc3Cl)n2)c1 | inactive: 79%
15 | O=S(=O)(NCC(c1ccco1)S(=O)(=O)c1ccccc1)c1cc(F)ccc1F (stereo not given) | inactive: 87%
16 | CNC(=O)C1CCC(Cn2c(=O)c3sccc3n(CC(=O)N3CCCCC3C)c2=O)CC1 (stereo not given) | inactive: 113%
17 | O=C(CCS(=O)(=O)c1ccc(Br)s1)Nc1c(F)cccc1F | inactive: 134%
18 | COc1cc(C2CC(=O)N(c3ccc(C)c(Cl)c3)C3=C2C(=O)OC3)cc(OC)c1OC (stereo not given) | inactive: 76%
19 | CCCCOc1ccc(NC(=O)CSc2ccc(C(=O)O)cn2)cc1 | inactive: 89%
20 | CCN1CCN(CCC(=O)Nc2ccc(C)cc2)CC1 | inactive: 102%
21 | CC(C)(C)n1nnnc1CN1CCC(NC(=O)Nc2ccc(F)cc2)CC1 | inactive: 103%
22 | CCOC(=O)c1ccc(NC(=O)Nc2cccc(OCc3cc(=O)n4ccc(C)cc4n3)c2)cc1 | inactive: 74%
23 | COc1ccc(NC(=O)CCc2nc3cccnc3n2Cc2cccs2)c(OC)c1 | inactive: 80%

Row | SMILES | survival
24 | Cc1cc(N2CCN(c3ccccc3F)CC2)n2cnnc2n1 | inactive: 84%
25 | CCCSc1ncc(Cl)c(C(=O)Nc2ccc(OC)cc2OC)n1 | inactive: 86%
26 | O=C(NCc1ccc(F)cc1)c1ccc2c(c1)N(Cc1ccc(F)cc1Cl)C(=O)CS2 | inactive: 86%
27 | CC(C)CCSc1nc2c(c(=O)n(C)c(=O)n2C)n1Cc1ccccc1Cl | inactive: 62%
28 | O=C(NCCn1cc(SCc2ccc(C(F)(F)F)cc2)c2ccccc21)c1ccccc1F | inactive: 35%
29 | COc1cccc(CNC(=O)CCn2ccc3cc(S(=O)(=O)N4CCCC4)ccc32)c1 | inactive: 73%
30 | Cc1ccc(CN2C(=O)SC(Nc3ccccc3)C2=O)cc1 (stereo not given) | inactive: 68%
31 | CCn1cnc2c(=O)oc3ccc(S(=O)(=O)N4CCN(c5cc(C)ccc5C)CC4)cc3c21 | inactive: 101%
32 | CN(C)S(=O)(=O)c1ccc(S(=O)(=O)N2CC=C(c3ccc(F)cc3)CC2)cc1 | inactive: 102%
33 | COc1ccc(NC(=O)Nc2nnc(SCC(=O)Nc3cccc(C)c3C)s2)cc1 | inactive: 113%
34 | COc1ccc(CCn2nnnc2CN2CCN(Cc3ccccc3)CC2)cc1OC | inactive: 108%
35 | CCOc1ccc(NC(=O)CCn2c(-c3ccc(F)cc3)cc(C(C)=O)c2C)cc1 | inactive: 69%
36 | O=S(=O)(NCCc1ccc(Cl)cc1)c1ccc(N2CCCCS2(=O)=O)cc1 | inactive: 92%
37 | COc1ccc(C2=C(C)C(=O)N(Cc3ccc(C(=O)NCc4ccccc4C)cc3)S2(=O)=O)cc1 | inactive: 66%
38 | COc1ccccc1OCCCn1c(-c2ccc(Cl)cc2)nc2ccccc2c1=O | inactive: 34%
39 | COc1cc(NC(=O)CCN2CCOCC2)cc(OC)c1 | inactive: 108%
40 | O=C(CSc1nnc(-c2ccccc2)c(-c2ccccc2)n1)Nc1ccccc1Cl | inactive: 70%
41 | CCCOc1ccc(C(=O)Nc2cc3nn(-c4ccc(CC)cc4)nc3cc2C)cc1 | inactive: 59%
42 | CCC(C)Cn1c(COc2ccc(OC)cc2)nc2ccccc21 (stereo not given) | active: -1%
43 | CCC(O)(CCN1CCCCC1)c1ccccc1 (stereo not given) | inactive: 113%
44 | CCOC(=O)Cc1c(C)nc2c(-c3ccc(OC)c(OC)c3)c(C)nn2c1C | inactive: 61%
45 | CCN1C(=O)/C(=c2/s/c(=C3\SC(C)=C(C)N3CC)c(=O)n2CC)N(C)C1=S | inactive: 104%
